# Results published in article PMC11995724, “Antibiotic target discovery by integrated phenotypic and activity-based profiling of electrophilic fragments” (Cell chemical biology, 2025).
# Hit rate of the full screen: of about 3,200 compounds, about 110 (3.4%) showed an effect of 50% or more. Some of the results follow.
# System: T1, V. cholerae SAD30
# T1 construct: SAD30
# Design: species or system S. aureus MSSA476 (TSB) or V. cholerae SAD30 (LB); 384-well bacterial growth screen at 25 uM, OD600 relative to DMSO control
# Details: relative growth, OD600, LB; 25 µM; inhibitor
row,SMILES,% of control remaining [%]
1,"C=CC(=O)Nc1cccc(C(=O)C(F)F)c1 [1-G14, N-[3-(2,2-difluoroacetyl)phenyl]prop-2-enamide]",91.1809
2,"COc1ccc(Cl)c2c1CCCC2N(C)C(=O)C(C)Cl (stereo not shown) [7-P09, 2-chloro-N-(8-chloro-5-methoxy-1,2,3,4-tetrahydronaphthalen-1-yl)-N-methylpropanamide]",63.4396
3,"C=CC(=O)NC1CN(S(=O)(=O)c2ccc3c(c2)OCCO3)C1 [2-E11, N-[1-(2,3-dihydro-1,4-benzodioxine-6-sulfonyl)azetidin-3-yl]prop-2-enamide]",95.7541
4,"C=CC(=O)NC1(c2ncon2)CC1 [1-A05, N-[1-(1,2,4-oxadiazol-3-yl)cyclopropyl]prop-2-enamide]",89.0882
5,"C=CC(=O)N(C)Cc1noc(C2CC2)n1 [2-N17, N-[(5-cyclopropyl-1,2,4-oxadiazol-3-yl)methyl]-N-methylprop-2-enamide]",90.9679
6,"C=CC(=O)Nc1ccc(C(C)Sc2ccccc2)cc1 (stereo not shown) [1-C21, N-{4-[1-(phenylsulfanyl)ethyl]phenyl}prop-2-enamide]",65.4709
7,"CCn1nc(C)c(C(=O)CCl)n1 [10-P08, 2-chloro-1-(2-ethyl-5-methyl-2H-1,2,3-triazol-4-yl)ethan-1-one]",40.2104
8,"COC(=O)C1(NC(=O)CCl)CC1 [6-I06, methyl 1-(2-chloroacetamido)cyclopropane-1-carboxylate]",92.9756
9,"C=CC(=O)N(C)CC(=O)N1CCC2(CC1)CC2c1nnc(C(C)C)o1 (stereo not shown) [2-N22, N-methyl-N-(2-oxo-2-{1-[5-(propan-2-yl)-1,3,4-oxadiazol-2-yl]-6-azaspiro[2.5]octan-6-yl}ethyl)prop-2-enamide]",92.6662
10,"O=C(CCl)N1CC2CCC(C1)O2 [6-M20, 2-chloro-1-{8-oxa-3-azabicyclo[3.2.1]octan-3-yl}ethan-1-one]",95.8574
11,"C=CC(=O)NC(C)c1ccc(-n2ccnn2)cc1 (stereo not shown) [3-B13, N-{1-[4-(1H-1,2,3-triazol-1-yl)phenyl]ethyl}prop-2-enamide]",104.793
12,"N#CC(=Cc1csc(C2CC2)n1)C(=O)Nc1ccccc1C(=O)O [9-C16, 2-[2-cyano-3-(2-cyclopropyl-1,3-thiazol-4-yl)prop-2-enamido]benzoic acid]",81.6451
13,"Cc1ccc(C=C(C#N)C(=O)NC2CCCC2)cc1C [8-E12, 2-cyano-N-cyclopentyl-3-(3,4-dimethylphenyl)prop-2-enamide]",70.6322
14,"C=CC(=O)NCCN1C(=O)COc2ccccc21 [2-P07, N-[2-(3-oxo-3,4-dihydro-2H-1,4-benzoxazin-4-yl)ethyl]prop-2-enamide]",101.004
15,"Cc1ccc(NC(=O)C(C#N)=Cc2ccc(OC(F)F)cc2)c(C)c1 [9-G19, 2-cyano-3-[4-(difluoromethoxy)phenyl]-N-(2,4-dimethylphenyl)prop-2-enamide]",75.2549
16,"CN1C(=C(C#N)C(=O)CCl)N(C)c2ccccc21 [10-P18, 4-chloro-2-(1,3-dimethyl-2,3-dihydro-1H-1,3-benzodiazol-2-ylidene)-3-oxobutanenitrile]",91.7982
17,"CC1CCN(C(=O)CCl)c2cc(C(F)(F)F)ccc2S1 (stereo not shown) [5-J07, 2-chloro-1-[2-methyl-7-(trifluoromethyl)-2,3,4,5-tetrahydro-1,5-benzothiazepin-5-yl]ethan-1-one]",87.7587
18,"C=CC(=O)NCCC(=O)NC1CCSc2ccc(F)cc21 (stereo not shown) [3-D08, N-{2-[(6-fluoro-3,4-dihydro-2H-1-benzothiopyran-4-yl)carbamoyl]ethyl}prop-2-enamide]",104.44
19,"C=CC(=O)NC1(Cn2cccn2)CC(F)(F)C1 [2-J17, N-{3,3-difluoro-1-[(1H-pyrazol-1-yl)methyl]cyclobutyl}prop-2-enamide]",91.5854
20,"N#CC(=Cc1cc2ccccc2o1)C(=O)NCc1ccco1 [9-O08, 3-(1-benzofuran-2-yl)-2-cyano-N-[(furan-2-yl)methyl]prop-2-enamide]",80.4215
21,"O=C(CCl)NC1CCCOc2c(F)cccc21 (stereo not shown) [7-B14, 2-chloro-N-(9-fluoro-2,3,4,5-tetrahydro-1-benzoxepin-5-yl)acetamide]",79.696
22,"O=C(CCl)c1sccc1Cl [10-K11, 2-chloro-1-(3-chlorothiophen-2-yl)ethan-1-one]",0
23,"C=CC(=O)NC1CCCN(C(=O)CCC(F)(F)F)C1 (stereo not shown) [1-B03, N-[1-(4,4,4-trifluorobutanoyl)piperidin-3-yl]prop-2-enamide]",100.897
24,"COc1ccc(C=C(C#N)C(=O)Nc2cccc3c2C(=O)NC3=O)cc1 [8-F13, 2-cyano-N-(1,3-dioxo-2,3-dihydro-1H-isoindol-4-yl)-3-(4-methoxyphenyl)prop-2-enamide]",77.1584
25,"CC(Cl)C(=O)NCCN1C(=O)CSC1=O (stereo not shown) [5-M03, 2-chloro-N-[2-(2,4-dioxo-1,3-thiazolidin-3-yl)ethyl]propanamide]",110.623
26,"C=CC(=O)Nc1ccc2c(c1)N(C)CC2 [1-G13, N-(1-methyl-2,3-dihydro-1H-indol-6-yl)prop-2-enamide]",88.6398
27,"C=CC(=O)NCC1CCCN1S(=O)(=O)CC (stereo not shown) [3-F19, N-{[1-(ethanesulfonyl)pyrrolidin-2-yl]methyl}prop-2-enamide]",88.9138
28,"CC(Cl)C(=O)N1CCC(c2nc(N(C)C)no2)CC1 (stereo not shown) [6-F05, 2-chloro-1-{4-[3-(dimethylamino)-1,2,4-oxadiazol-5-yl]piperidin-1-yl}propan-1-one]",90.7005
